From PMC4336329 (PLoS ONE, 2015)
The whole screen tested about 310,000 compounds, of which about 2,200 (0.71%) showed an effect of 50% or more. The effect is printed as a negative number. This is one part of the list.

The molecules below were run against human ether-à-go-go-related gene (hERG) potassium channel (human, UniProt Q12809) (assay: primary screen, population patch clamp on CHO cells stably expressing hERG).
Chain of human ether-à-go-go-related gene (hERG) potassium channel (Q12809 whole entry, looked up): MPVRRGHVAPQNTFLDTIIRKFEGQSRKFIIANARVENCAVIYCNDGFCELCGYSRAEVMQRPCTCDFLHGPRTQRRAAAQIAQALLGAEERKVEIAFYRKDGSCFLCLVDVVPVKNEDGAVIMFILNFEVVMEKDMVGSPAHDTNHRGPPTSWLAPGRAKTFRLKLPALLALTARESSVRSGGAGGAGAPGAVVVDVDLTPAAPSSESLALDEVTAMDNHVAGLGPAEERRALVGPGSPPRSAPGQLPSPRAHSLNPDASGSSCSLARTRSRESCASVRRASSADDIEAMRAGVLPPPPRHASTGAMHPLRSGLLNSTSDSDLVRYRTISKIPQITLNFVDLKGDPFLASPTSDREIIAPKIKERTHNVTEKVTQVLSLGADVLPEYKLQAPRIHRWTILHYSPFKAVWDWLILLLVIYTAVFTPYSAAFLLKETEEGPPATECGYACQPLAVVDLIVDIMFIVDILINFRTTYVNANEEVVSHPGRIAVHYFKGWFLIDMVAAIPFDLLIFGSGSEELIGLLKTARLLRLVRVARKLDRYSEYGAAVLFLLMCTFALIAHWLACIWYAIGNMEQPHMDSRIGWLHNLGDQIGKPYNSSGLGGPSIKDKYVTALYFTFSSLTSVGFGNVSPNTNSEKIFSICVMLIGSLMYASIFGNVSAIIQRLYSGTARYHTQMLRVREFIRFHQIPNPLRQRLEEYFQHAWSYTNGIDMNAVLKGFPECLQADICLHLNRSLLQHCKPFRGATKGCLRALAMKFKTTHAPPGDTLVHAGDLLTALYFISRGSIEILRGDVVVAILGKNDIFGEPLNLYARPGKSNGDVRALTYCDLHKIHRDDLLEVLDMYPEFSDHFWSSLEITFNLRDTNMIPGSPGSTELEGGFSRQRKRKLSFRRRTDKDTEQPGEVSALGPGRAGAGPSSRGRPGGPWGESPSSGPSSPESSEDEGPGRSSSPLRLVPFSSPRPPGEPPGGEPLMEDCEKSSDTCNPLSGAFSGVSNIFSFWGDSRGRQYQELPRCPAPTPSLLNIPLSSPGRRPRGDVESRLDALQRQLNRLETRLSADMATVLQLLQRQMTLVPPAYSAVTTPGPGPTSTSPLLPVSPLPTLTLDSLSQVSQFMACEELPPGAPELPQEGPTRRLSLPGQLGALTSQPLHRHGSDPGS

SMILES	hERG current change (%, negative = inhibition) at 1uM
O=C(Nc1cccc(S(=O)(=O)N2CCCCC2)c1)c1cc2ccccc2o1	21.7%
COc1ccc(CCNC(=O)CCN2C(=O)c3cccc4cccc(c34)C2=O)cc1OC	8.46%
CCS(=O)(=O)N1CCCC(C(=O)NCCc2ccc(OC)c(OC)c2)C1 (stereo not shown)	9.44%
CC1CC(C)CN(C(=O)C(C)N(C)CC(=O)Nc2ccc(Cl)cc2)C1.O=C(O)C(=O)O (stereo not shown)	1.2%
CC1CCCCN1CCCNC(=O)c1nn(C)c2c1CSc1ccccc1-2 (stereo not shown)	-23.4%
CC(=O)N1N=C(c2ccccc2)CC1c1cccs1 (stereo not shown)	8.67%
NC(=S)N=Nc1c(O)[nH]c2ccccc12	8.04%
COC(=O)C1=C(c2ccc(F)cc2F)C[C@@H]2CC[C@H]1N2C(=O)NCC1CC1	9.76%
O=c1c2ccccc2ncn1C1CCCCC1	-2.4%
Cc1ccc(NS(=O)(=O)c2cc(-c3n[nH]c(=O)c4ccccc34)ccc2C)cc1	9.28%
COc1ccc(NS(=O)(=O)c2cn(C)nc2C)cc1	3.4%
COc1ccccc1CNC(=O)CCC1N=C2c3ccccc3N=C(SCC(=O)NCC3CCCO3)N2C1=O (stereo not shown)	15.1%
COc1cccc(C2c3[nH]c4ccccc4c3CCN2Cc2cnn(C)c2)c1 (stereo not shown)	-49.4%
O=S(=O)(Nc1ncccn1)c1ccc(NC(=S)NCCc2ccccc2)cc1	1.39%
Cc1ccc(S(=O)(=O)N2CCCC2C(=O)NCCc2ccccc2)cc1 (stereo not shown)	5.6%
CC(C)NC(=O)COC(=O)Cn1[nH]c(=O)c2ccccc2c1=O	8.44%
Cc1cc(NC(=O)CCc2ccc(-c3ccccc3)o2)no1	8.34%
CC(=O)OCCCCCCCCCCC[N+]1(C)CCCCC1.[I-]	7.79%
O=C1CC(c2cccs2)Cc2nc(NC(=O)C3CC3)ncc21 (stereo not shown)	12.8%
CCc1nnc(NC(=O)CSc2nnc(CNc3cccc(Cl)c3)n2CC)s1	-1.71%

SMILES	hERG current change (%, negative = inhibition) at 1uM
COc1cc(C(=O)Nc2nccs2)cc(OC)c1OC	14.2%
CCOC(=O)CCNC(=O)N1CCC(CCOc2ccccc2)(C(=O)OCC)CC1	9%
CN(NC1OC(=O)c2ccccc21)c1ncc(C(F)(F)F)cc1Cl (stereo not shown)	9.23%
COc1cccc(NC(=S)NCCC(c2ccccc2)c2ccccc2)c1	5.15%
COc1cccc(-c2nnc(SCC(=O)Nc3cc(C)on3)n2C)c1	-8.4%
O=C(Nc1ccccc1)NC1CCCCC1	9.43%
CCOC(=O)C1CCN(C(=O)C2CC(=O)N(c3ccc4c(c3)OCCO4)C2)CC1 (stereo not shown)	2.02%
COCCn1c(=O)[nH]c2cc(C(=O)N3CCN(c4cccc(C)c4C)CC3)ccc2c1=O	13.4%
CCNC(=S)N/N=C/c1ccco1	7.17%
CCn1cc(/C=C/c2cc[n+](C)cc2)c2ccccc21.[I-]	-0.0391%
CC(C)(C)SCCNC(=O)COc1ccc(Cl)cc1	8.67%
O=C(NCc1ccc(F)cc1)c1ccc(CS(=O)Cc2ccccc2Cl)o1 (stereo not shown)	4.6%
COc1ccc(OC)c(/C=C/C(=O)OCC(=O)NC2CCCCCCC2)c1	18.3%
Cn1c(CCN2CCN(c3ccccn3)CC2)nc2cc(NC(=O)COc3ccc(Cl)cc3)ccc21	0.879%
CN1C(=O)N(C)C2(c3ccccc3)Nn3c(s/c(=C/c4ccccc4)c3=O)=NC12c1ccccc1 (stereo not shown)	22.1%
Cc1nn(C)c(C)c1NC(=O)CCl.Cl	11.3%
CC(C1CC2CCC1C2)n1c(-c2ccco2)n[nH]c1=S (stereo not shown)	13.6%
N#Cc1c(SCC(=O)O)nc(N2CCCCC2)c2c1CCCC2	10.5%
O=C(CCCN1C(=O)/C(=C\c2ccccc2)SC1=S)Nc1ccc(O)cc1	7.95%
Cc1cc(C)c(C#N)c(SCC(=O)NC(C)(C)C)n1	-16.7%

SMILES	hERG current change (%, negative = inhibition) at 1uM
CC(C)Cc1cc(-c2ccco2)c(C#N)c(N)n1	7.21%
CC1(C)CC(=O)C=C(NCc2ccccc2)C1	11.9%
O=C1N/C(=N/N=C/c2ccco2)SC1Cc1ccccc1 (stereo not shown)	8.44%
COc1ccc(CCNC2CC(=O)N(CCc3ccc(OC)c(OC)c3)C2=O)cc1 (stereo not shown)	7.42%
COc1ccc(CCN(C)C(=O)c2ccc(OCC(=O)N3CCOCC3)c(OC)c2)cc1OC	13.4%
CN(C)C(=O)c1cc(C(=O)c2c(F)cccc2F)c[nH]1	5.83%
CC(C)[C@H](NC(N)=O)C(=O)Nc1ccc2c(c1)CCC2	1.21%
O=C(COc1ccc(S(=O)(=O)N2CCCC2)cc1Cl)N1CCN(c2ccccc2)CC1	-4.84%
O=C(CSc1ccc(F)cc1)Nc1ccc(N2CCOCC2)c(Cl)c1	8.55%
Cc1cc(O)c(NC(=O)c2ccco2)cc1C	7%
O=C(COC(=O)/C(=C/c1cccs1)c1cccs1)NCc1ccccc1Cl	7.49%
CCOc1ccc(NC(=O)CSc2nnc(-c3ccncc3)n2CC2CCCO2)cc1 (stereo not shown)	7.6%
CS(=O)(=O)N1CCC(Oc2cccc(C(=O)NCCCOc3cccnc3)c2)CC1	1.51%
C/C=C/C(=O)Nc1nnc(-c2ccccc2C)s1	2.82%
COc1cccc(NC(=O)Cc2cn(C)c3ccccc23)c1	5.36%
Cc1c(C)c2ccc(OCC(=O)N[C@@H](Cc3ccccc3)C(=O)O)cc2oc1=O	18.5%
Cl.O=C(CSC1=NCCN1)Nc1cccc(C(F)(F)F)c1	-8.1%
O=C(Cn1cnc2ccccc21)Nc1cccc([N+](=O)[O-])c1	11.1%
